Out of some 45,000 compounds screened, about 65 (0.1%) were called active. The call rests on the fitted dose curve; in most records, active means well fitted activation curve with a large enough effect; inconclusive means small, poorly fitted or top-dose-only effect; inactive means no such curve, though single readings can be large or run the other way. The list shows a part of the results.
Each compound was assayed against Galactocerebrosidase (Homo sapiens) (UniProt P54803) (assay: A Novel Cell-Based Assay to Identify Small Molecules for B -Galactocerebrosidase). Conditions: 145M-Twi-hGALC-G270D cells (Twitcher mouse brain line with human GALC G270D), HMU-beta-Gal fluorescence, 48 h; series mostly up to 57.5 µM; activation: at the top concentration.
Procedure, shortened: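 Fluorescence readout: HMU-β-gal cleavage by mutant GALC (0.1 mM final, citrate/phosphate pH 5.2 with 1 mg/mL taurocholate), stopped with carbonate/bicarbonate plus Triton X-100. Cells: murine Twitcher 145M-Twi expressing human G270D GALC; qHTS for activators.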
Further: 0% is about no effect; nearly all actives have a fitted effect of over 65% in size.

Chain of UniProt P54803 (P54803 whole entry, looked up): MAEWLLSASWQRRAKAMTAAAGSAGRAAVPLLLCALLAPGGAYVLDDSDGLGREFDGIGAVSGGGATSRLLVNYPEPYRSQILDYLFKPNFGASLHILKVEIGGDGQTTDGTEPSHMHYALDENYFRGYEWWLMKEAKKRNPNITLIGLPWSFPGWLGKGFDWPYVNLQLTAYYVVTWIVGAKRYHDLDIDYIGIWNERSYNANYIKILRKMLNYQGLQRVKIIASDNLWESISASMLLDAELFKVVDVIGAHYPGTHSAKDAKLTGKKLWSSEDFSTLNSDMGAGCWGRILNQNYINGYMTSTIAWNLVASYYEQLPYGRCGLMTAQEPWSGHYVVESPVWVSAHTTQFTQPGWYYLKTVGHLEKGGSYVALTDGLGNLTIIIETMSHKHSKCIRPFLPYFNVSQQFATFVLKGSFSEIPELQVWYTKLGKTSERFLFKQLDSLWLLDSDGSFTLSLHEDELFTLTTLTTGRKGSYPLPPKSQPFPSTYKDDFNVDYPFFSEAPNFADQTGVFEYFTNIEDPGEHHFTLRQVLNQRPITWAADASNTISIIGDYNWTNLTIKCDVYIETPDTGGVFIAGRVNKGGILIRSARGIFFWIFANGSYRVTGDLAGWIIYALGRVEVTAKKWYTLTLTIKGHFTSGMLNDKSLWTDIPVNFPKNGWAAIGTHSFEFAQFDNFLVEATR

activation, inactive:
Cc1c(C(=O)NCc2cccc(Cl)c2)sc2nc3n(c(=O)c12)CCC3 -17.6%, O=C(COC(=O)c1cc(-c2ccccc2)nc2ccccc12)c1ccc(Br)cc1 -1.46%, Cc1ccc(C(=O)Nc2ccc3nc(SCC(=O)N4CCCc5ccccc54)sc3c2)cc1 -17.1%, CSc1nc2sc3c(c2c(=O)n1Cc1ccccc1)CCC(C(C)(C)C)C3 (centres undefined) -13%, O=S(=O)(c1ccc(Br)cc1)c1nnn2c1nc(N1CCOCC1)c1sccc12 -16.1%, NC(=O)c1nc(-c2ccc(F)c(F)c2)nc2c1[nH]c(=O)n2-c1cccc(Cl)c1 1.18%, CCN1CCN(CCCNC(=O)c2cnn(-c3ccc(C)cc3C)c2C2CCN(C(=O)OC(C)(C)C)CC2)CC1 22%, Cc1cccc(C)c1OCC(=O)NCC1(N2CCOCC2)CCCCC1 -7.04%, CCOC(=O)c1ccc(-n2c(N)c(C(=O)OC)c3nc4ccccc4nc32)cc1 -9.55%, CCc1ccccc1NC(=O)C1=CC(c2ccc(OC)c(OC)c2)=NS(=O)(=O)N1C -9.43%, COc1ccc(OC(=O)c2nc(SCc3ccc(C)cc3)ncc2Cl)cc1 -18.7%, CC1CCCN(c2csc3ccc(F)cc3c2=O)C1 (centres undefined) -12.6%, Cc1ccc(NC(=O)Cn2c(=O)n(Cc3ccccc3)c(=O)c3c(C)c(C)sc32)c(C)c1 -7.42%, CCC(Cc1ccccc1)NC(=O)c1ccc2nc(N3CCC(C)CC3)sc2c1 (centres undefined) -6.65%, Cc1ccc(-c2nc(C)c(CCNC(=O)C(=O)Nc3ccc4c(c3)OCCO4)s2)cc1 -25.8%, CCCOc1ccc(C(=O)Nc2cccc(-c3nc4ccccc4[nH]3)c2)cc1 -4.14%, COc1ccccc1-c1nc(S(=O)(=O)c2ccc(Cl)cc2)c(N2CCCCCC2)o1 -4.54%, COc1ccc(-n2nc3ccc(NC(=O)c4cc5ccccc5o4)cc3n2)cc1Cl -9.53%, CCOc1ccc(CNC(=O)C2CCCN(c3nc4c(C)cc(C)cc4s3)C2)cc1 (centres undefined) -17.2%, CCC(CC)C(=O)Nc1cccc(-c2nc3cccnc3s2)c1C 2.73%, CCOc1cc(C2C(C(=O)OC)=C(C)NC3=C2C(=O)c2ccccc23)ccc1O (centres undefined) -6.38%, CC1(C)O[C@H]2[C@@H](O1)[C@@H](C(=O)Nc1ccccc1O)O[C@@H]1OC(C)(C)O[C@@H]12 -6.54%, CCc1ccc(-c2nn(CC(=O)NC3CCCC3)c3c2cnc2ccc(C)cc23)cc1 -2.54%, Cc1ccc(C(C)C)c(OCC(=O)Nc2c(C(=O)c3ccccc3)oc3ccccc23)c1 1.73%, Cc1cccc(/C=C/c2onc(C)c2S(=O)(=O)N2CCC(C(=O)N3CCC(C)CC3)CC2)c1 -14.8%, FC(F)(F)c1ccccc1-n1ccnc1 -13.9%, Cc1cc(Nc2cccc(C(F)(F)F)c2)nc2ccc(NC(=O)c3ccc(N(C)C)cc3)cc12 -22.4%, O=C(Nc1cccc(C(=O)N2CCCCC2)c1)c1nsc2ccccc12 -7.6%, Cc1cc(O)c(C(c2ccc(F)cc2)N2CCCCC2)c(=O)n1Cc1ccco1 (centres undefined) -14.1%, CCc1ccc(-n2nc(C)c3c(C(=O)Nc4cccc(C(F)(F)F)c4)cc(C)nc32)cc1 -4.38%, CCOc1ccccc1NC(=O)c1c(C)cc(C)nc1SCC(=O)c1cccc(OC)c1 -15.5%, Cc1ccc(NC(=O)c2sc3ccccc3c2Cl)cc1 7.87%, Cc1ccc(CN2C(=O)c3ccccc3C2C(=O)NC2CCCCCC2)cc1 (centres undefined) -17.7%, Cc1ccc(NC(=O)CCCn2nc(C)c3c(C)n(-c4ccccc4)nc3c2=O)cc1Cl -13%, O=C(CN1CCN(c2ccc(Cl)cc2)CC1)Nc1ccc(F)cc1F -15.3%, Cc1cccn2c(=O)c(/C=C(\C#N)c3nc4ccccc4n3C)c(Oc3ccc(Br)cc3)nc12 -11.2%, COc1ccc(CNC(=O)CCn2nc(C)c3c(C)n(-c4ccccc4)nc3c2=O)cc1OC -11.4%, Cc1cccc(C)c1Nc1c(-c2ccsc2)nc2ccccn12 -8.7%, COc1ccc(CNC(=O)C(=O)NCC(c2cccs2)S(=O)(=O)c2ccc(F)cc2)cc1 (centres undefined) 3.06%, CCOCCCn1c(=N)c(S(=O)(=O)c2ccc(C)cc2)cc2c(=O)n3cccc(C)c3nc21 -2.35%, COc1ccc(CN(CCC(c2ccc3c(c2)OCO3)c2ccccc2OC)C(C)=O)cc1 (centres undefined) -36.4%, CCOc1ccc(N(CC(=O)Nc2ccc(F)cc2F)S(=O)(=O)c2c(C)[nH]c(=O)[nH]c2=O)cc1 -7.29%, CN1C(=O)c2ccccc2Sc2ccc(NC(=O)Nc3ccccc3F)cc21 -20.3%, Cc1ccc(NC(=O)c2c(Nc3ccccc3C)sc(C(=O)c3ccccc3)c2N)cc1 3.99%, O=C(NCC(c1ccc2c(c1)OCO2)N1CCN(c2ccccc2)CC1)c1ccccc1F (centres undefined) -24%, CC(=O)N1CCCc2cc(S(=O)(=O)N(C)CC(=O)Nc3ccc(F)cc3Cl)ccc21 -13.6%, CCOC(=O)c1ccc(OCC2c3cc(OC)c(OC)cc3CCN2C(=O)Cc2ccc(F)cc2)cc1 (centres undefined) -48.5%, O=S(=O)(NCCc1ccccc1)c1ccc(N2CCCCS2(=O)=O)cc1 -20.1%, O=c1cc(CN2CCN(S(=O)(=O)c3ccc(Cl)cc3)CC2)nc2sc(-c3ccccc3F)nn12 6.75%, CCOc1ccc(NS(=O)(=O)c2ccc3[nH]cc(C(=O)NCc4ccco4)c(=O)c3c2)cc1 -2.65%, COc1cccc(OC(=O)CSc2nnc(-c3ccccc3OC)o2)c1 8.43%, COc1ccc(Cl)cc1NC(=O)c1cc2nc(-c3ccc4c(c3)OCO4)cc(C(F)(F)F)n2n1 -10.7%, Cc1ccc(C)c(N2CCN(c3nc4ccccc4c4nc(CCn5nc(C)cc5C)nn34)CC2)c1 -9.42%, Cc1cccc(NC(=O)c2sc3nc4n(c(=O)c3c2C)N=C(c2ccc(F)cc2)CS4)c1C -6.87%, NC(=O)CC[C@@H](N)C(=O)O -15.8%, COc1ccc(C(=O)O)cc1Nc1nc2ccc(C)cc2n2cnnc12 2.92%, Cc1ccc(N2C(=O)CS(=O)(=O)C23C(=O)N(Cc2cccc(F)c2)c2ccccc23)cc1Cl (centres undefined) -14.1%, O=C(CSc1nc(-c2ccc(Cl)cc2)nc2c1Cc1ccccc1O2)N1CCCCC1 2.4%, CO/N=C(\C(=O)N[C@@H]1C(=O)N2C(C(=O)O)=C(CSc3nc(=O)c(O)nn3C)CS[C@H]12)c1csc(N)n1 -21%, CCCCc1ccc(NC(=O)c2cc3c(=O)n4ccccc4nc3n2C)cc1 -10.3%, COC(=O)Cn1c(=O)c2c(nc3n2CCN3c2cccc(C)c2)n(C)c1=O -10.7%, CCN(CC)S(=O)(=O)c1ccc(NC(=O)[C@H](CSCc2ccccc2)N2Cc3ccccc3C2=O)cc1 -18.7%, COc1ccc(NC(=O)CCCc2nc(-c3ccco3)no2)c(OC)c1 -11.9%, COc1ccc2nc3sc(C(=O)Nc4ccccc4F)cc3cc2c1 -2.36%, Cc1ccc(S(=O)(=O)NCC(c2ccc(N(C)C)cc2)N2CCCC2)cc1 (centres undefined) -9%, COc1cc(OC)cc(-c2nc3n(n2)C(c2ccccc2F)C(C(=O)Nc2cccnc2)=C(C)N3)c1 (centres undefined) -17%, CCc1ccc(S(=O)(=O)c2cn(C)c3cc(N4CCCCC4C)c(F)cc3c2=O)cc1 (centres undefined) -10.6%, CCc1ccc(C2C(C(=O)Nc3ccccc3)=C(C)Nc3c(C(=O)Nc4ccc(C)cc4)cnn32)cc1 (centres undefined) -16.3%, CCOC(=O)Cn1c(=O)oc2cc(S(=O)(=O)N3CCN(c4ccc(Cl)cc4)CC3)ccc21 11.6%, Cc1cc(C)cc(NC(=O)C2CCCN(c3nnc(C)c4c(C)n(-c5ccccc5)nc34)C2)c1 (centres undefined) -6.34%, O=C(c1ccco1)N(Cc1cccnc1)c1nc2ccc(F)cc2s1 -12.5%, Cc1ccc(-n2c(CCC(=O)O)ccc2-c2cccs2)cc1C -6.5%, O=C(Nc1ccc(C(F)(F)F)cc1)C1CCC(CNS(=O)(=O)c2cccc3nsnc23)CC1 (centres undefined) -17.5%, CCOC(=O)C1CCN(C(c2ccccc2)c2c(O)cc(C)n(Cc3ccco3)c2=O)CC1 (centres undefined) -1.26%, COc1ccc(OCC(=O)Nc2nnc(S(=O)(=O)N3CCCCCC3)s2)cc1 -16.9%, O=C(CSc1nccn1Cc1ccco1)Nc1cccc(F)c1 -7.21%, COc1cc(C2CC(=O)Nc3c2c(=O)[nH]c2nc4ccccc4n32)ccc1O (centres undefined) 8.52%, CCc1nn2c(=O)cc(COC(=O)c3ccccc3NC(=O)COc3ccccc3C)nc2s1 -17.5%, COc1ccc(-c2nn3c(-c4ccc(OC)cc4)nnc3c3ccccc23)cc1 -6.65%, Cc1ccc2c(c1)cc(C(=O)Nc1ccccc1C)n2C -6.99%, CCC(C)NC(=O)c1cc2c(Cl)nc3ccc(C)cc3c2s1 (centres undefined) -5.01%, CC1(C)C(=O)N(CC(=O)Nc2ccc(Cl)cc2)c2ccccc21 -18.2%, Cc1nc(N2CCCC2)c2c(C(=O)Nc3cccc(C)c3C)c(C)oc2n1 -7.13%, O=C(Nc1ccc(C(=O)OCc2cc(=O)n3nc(C4CC4)sc3n2)cc1)c1ccc(F)cc1 29.7%, CC(=O)Nc1cccc(NC(=O)Cn2cnc3c2c(=O)n(C)c(=O)n3C)c1 -17.7%, O=C(Nc1cccc(Cl)c1)c1c(NC(=O)C(F)(F)F)sc2c1CCCC2 -16.3%, CCN(CC)c1ccc(NC(=O)C(Cc2ccccc2)NS(=O)(=O)c2ccc(Br)s2)c(C)c1 (centres undefined) -12.8%, COc1ccccc1N1CCN(C(=O)Cn2ncc3c(=O)oc4ccccc4c32)CC1 0.947%, C[C@]12CCC(=O)C=C1CC[C@@H]1[C@@H]2[C@@H](O)C[C@@]2(C)[C@H]1CC[C@]2(O)C(=O)COC(=O)CCC(=O)O -8.97%, CCOc1ccccc1N(C)C(=O)Cn1cnc2sc(C)c(S(=O)(=O)N3CCC(C)CC3)c2c1=O -7.37%, COc1ccc(S(=O)(=O)N(CC(=O)NCc2ccccc2OC)c2ccc(C)cc2)cc1 -11.8%, CC(C)(C)NC[C@H](O)COc1nsnc1N1CCOCC1 -5.41%, COc1cc(OC)c(NC(=O)COCc2cc(-c3cccs3)on2)cc1Cl -15%, COc1ccc(CCNCc2c(C(=O)O)c(C)n(Cc3ccccc3C)c2C)c(OC)c1 -12.3%

Reference: PubChem BioAssay AID1159614 (National Center for Advancing Translational Sciences (NCATS), 2016)
